Measured values as given in PubChem BioAssay AID1745845 (National Center for Advancing Translational Sciences (NCATS), 2022).
The campaign covered roughly 360,000 compounds. About 2,600 (0.72%) were called active. The inconclusive results got no clear call from the source; some entries with a clear call stand among them for comparison. Calls follow the shape of the dose curve; as a rule, active = well fitted inhibition curve with a large enough effect; inconclusive = small, poorly fitted or top-dose-only effect; inactive = no such curve, though single readings can be large or run the other way. Where the call is inconclusive, the potency comes from a doubtful curve fit.

test: Primary qHTS for Inhibitors of ATXN expression; settings: HEK-293 ATXN2-luciferase reporter, luminescence, 24 h; activity change, negative = inhibition: at 57 µM (top of the series); also: nearly all actives have a fitted effect of over 55% in size
Outline: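 qHTS (up to 57 uM final) was run with 24 h compound exposure of reporter cells at 37 °C. Each well was multiplexed: SteadyGlo luminescence measured ATXN2-luciferase expression after a fluorogenic Gly-Phe-AFC viability readout (25 uM final).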
% is scaled to controls: 0 for no effect and ±100 for the full control effect; potency is read from the fitted curve at half-maximal effect; tags tell the direction and shape of the fitted curve.

SMILES | activity change, negative = inhibition | Potency
COc1ccc(-c2ccc(C(=O)Nc3cccc(C(F)(F)F)c3)c3occc23)c(C)c1 | inactive: -12.3% | 
O=C(NCC(c1cccnc1)N1CCN(Cc2ccccc2)CC1)C(=O)Nc1cccc(Cl)c1 (configuration not stated) |  | inconclusive: 4.47 µM [inhibitor, single point]
COc1ccccc1CCn1cnc(-c2ccc(Br)cc2)c1C(C)C |  | inconclusive: 28.2 µM [inhibitor, single point]
Cc1c(C#N)c2ccccc2n1CCOc1ccccc1F | inactive: -5.99% | 
Cc1coc2cc3oc(=O)c(CCC(=O)NCc4ccccc4Cl)c(C)c3cc12 | inactive: 6.07% | 
COc1ccc(CC(=O)Nc2cc(S(=O)(=O)N3CCCCC3)ccc2C)cc1OC | inactive: -24.2% | 
C=CC[C@@H](CC(=O)N(CCO)Cc1ccccc1)C(=O)N[C@H](COC(=O)[C@@H](CC=C)CC(=O)OC(C)(C)C)c1ccccc1 |  | inconclusive: 39.8 µM [inhibitor, single point]
COc1cccc(-c2nn3c(-c4cccc(C)c4)nnc3s2)c1 | inactive: 47.8% | 
CC1=C(C(=O)O)N2C(=O)[C@@H](NC(=O)[C@H](N)C3=CCC=CC3)[C@H]2SC1 |  | inactive
COc1cccc(NC(=O)c2cc3c(-c4ccc(Cl)cc4)nn(C)c3s2)c1 |  | inconclusive: 7.08 µM [inhibitor, partial curve]
COc1ccc2c(c1)[nH]c1c(=O)n(/N=C/C3C(C)C=C(C)CC3C)c(=O)[nH]c12 (configuration not stated) |  | inconclusive: 33.6 µM [inhibitor, single point]
CC1(c2nnnn2Cc2ccccc2)CCC(=O)N1Cc1cccc(C(F)(F)F)c1 (configuration not stated) | inactive: -2.6% | 
CC1=CC(C)(C)Nc2ccc(OC(=O)c3cccnc3)cc21 |  | inconclusive: 39.8 µM [inhibitor, single point]
CCn1cc(-c2cc(C(=O)O)c3ccccc3n2)cn1 |  | inconclusive: 31.6 µM [inhibitor, single point]
O=S(=O)(/N=S1/CC=CCN1S(=O)(=O)c1ccccc1)c1ccccc1 (configuration not stated) | inactive: -8.44% | 
CC1=C(C(=O)N(C)C)CC(CC(=O)NCC2CCCCC2)C(=O)N1Cc1ccc(C(C)(C)C)cc1 (configuration not stated) |  | inconclusive: 28.2 µM [inhibitor, partial curve, poor fit]
COC(=O)c1c(C)oc2ccc(N(C(=O)c3ccncc3)S(=O)(=O)c3cc(C)ccc3C)cc12 |  | inconclusive: 28.2 µM [inhibitor, partial curve, poor fit]
COc1ccccc1CN(C)C(=O)c1cccc(S(=O)(=O)N2CCc3ccccc3C2)c1 |  | inconclusive: 3.16 µM [inhibitor, partial curve, poor fit]
COc1ccc(NC(=O)COC(=O)c2c3c(nc4ccccc24)CCCC3)cc1 |  | inconclusive: 20 µM [inhibitor, single point]
COc1ccc2c(c1)c(/C=N/Nc1nc3ccccc3[nH]1)c(C)n2C |  | inconclusive: 14.1 µM [inhibitor, partial curve, poor fit]
CC(=O)/C=C/c1ccc2ccccc2n1 | inactive: 2.45% | 
CCOc1ccc(-c2cc(CCCC(=O)NCCc3cc(OC)c(OC)c(OC)c3)no2)cc1 |  | inconclusive: 25.1 µM [inhibitor, single point]
Cc1ccc2c(CNCc3ccc(C)o3)c(C(=O)O)n(Cc3ccc(F)cc3)c2c1 |  | inconclusive: 39.8 µM [inhibitor, single point]

SMILES | activity change, negative = inhibition | Potency
C=CCC[C@H](Cc1ccc(F)cc1)C(=O)OC[C@@H](C)NC(=O)[C@@H](CC=C)CC(=O)N[C@H](CO)Cc1ccccc1 |  | inconclusive: 28.2 µM [inhibitor, partial curve, poor fit]
COc1ccccc1NC(=O)Cn1c(=O)n(CC(=O)NCc2ccccc2Cl)c(=O)c2sccc21 | inactive: 3.99% | 
Cc1ccc(C(=O)NC2(C(F)(F)F)N=C(c3ccccc3)N(Cc3ccccc3)C2=O)cc1 (configuration not stated) | inactive: -8.26% | 
NNC(=O)c1nc(-c2ccccc2)cc(-c2ccccc2)n1 |  | inconclusive: 10 µM [inhibitor, partial curve]
CC(C)(C)c1cc(-c2nc(N)nc(N)n2)c(O)c(C(C)(C)C)c1 |  | inconclusive: 35.5 µM [inhibitor, single point]
COc1ccc(CCNc2ncnc3c2[nH]c2cc(OC)c(OC)cc23)cc1OC |  | inconclusive: 31.6 µM [inhibitor, partial curve, poor fit]
CC(C)CSc1nc2ccccc2[nH]1 | inactive: 23.7% | 
O=C(/C=C/c1ccccc1)NC(NC(=S)Nc1cccc(Cl)c1)C(Cl)(Cl)Cl (configuration not stated) |  | inconclusive: 39.8 µM [inhibitor, single point]
O=C1/C(=C/c2ccccc2O)SC(=S)N1Cc1cccnc1 |  | active: 28.2 µM
O=C(c1ccc(Cl)cc1)N1CCCCC(Sc2nnc(-c3ccc4c(c3)OCO4)o2)C1=O (configuration not stated) |  | active: 2.24 µM
Nc1nnnn1/N=C/C(Br)=C/c1ccccc1 |  | active: 25.1 µM
CCN(CC)S(=O)(=O)c1ccc(Oc2ccc(S(=O)(=O)N(CC)CC)cc2)cc1 |  | inconclusive: 1.12 µM [inhibitor, full curve]
CN1CC[C@@H](c2c(O)cc(O)c3c(=O)cc(-c4ccccc4Cl)oc23)[C@@H](O)C1 |  | active: 0.153 µM
COCCCn1c(-c2ccc(S(=O)(=O)N3CCOCC3)cc2)csc1=Nc1ccccc1 |  | active: 31.6 µM
COc1ccc(N2C(=O)CN(Cc3ccc(OC)c(OC)c3)C2=S)cc1 | inactive: 2.38% | 
CCCCCCc1cc2cc(C(=O)Nc3ccccc3)c(=O)oc2cc1O |  | active: 7.08 µM
Cn1cc(/C=C/c2cc[n+](C)cc2)c2cc(F)ccc21 |  | inconclusive: 37.7 µM [inhibitor, single point]
Cc1ccccc1OCCSc1nc2ccc(NC(=O)c3cccs3)cc2s1 |  | inconclusive: 31.6 µM [inhibitor, single point]
CC1CCN(C(C)C(=O)Nc2ccccc2-c2ccccc2)CC1 (configuration not stated) |  | inconclusive: 25.1 µM [inhibitor, partial curve, poor fit]
O=C1N/C(=C/c2ccc(N3CCOCC3)o2)C(=O)N1c1ccccc1 |  | inconclusive: 28.2 µM [inhibitor, single point]
CCOC(=O)N/N=C1\CC(C)CC(C)(C)C1 (configuration not stated) | inactive: -15.1% | 
Cc1nc2c3cc(F)ccc3n(CCN3CCCCC3)c2s1 |  | inconclusive: 22.4 µM [inhibitor, partial curve, poor fit]
CC/C(=N/NC(=O)c1ccccc1O)c1c(C)[nH]n(-c2ccccc2)c1=O |  | inconclusive: 39.8 µM [inhibitor, single point]

SMILES | activity change, negative = inhibition | Potency
Cc1cccc(OCC(=O)NC(=S)Nc2ccccc2N2CCOCC2)c1C |  | inconclusive: 3.55 µM [inhibitor, partial curve, poor fit]
CCc1ccccc1NC(=O)C(C)n1c(=O)cc(C)c2c(C)nn(-c3ccccc3)c21 (configuration not stated) | inactive: 6.52% | 
COC(=O)c1ccc(CSc2nc3c([nH]c4ccccc43)c(=O)n2-c2cccc(Cl)c2)o1 | inactive: 10.2% | 
CCN(CC)S(=O)(=O)c1ccc2c(c1)nc(CN(C)C(=O)Nc1ccc(C)c(F)c1)n2C | inactive: 1.64% | 
O=C(OCC1CCCO1)c1ccc2c(c1)N(Cc1ccccc1)C(=O)c1ccccc1S2(=O)=O (configuration not stated) | inactive: -5.76% | 
COC(=O)C1=C(C)N(Cc2ccccc2)C(=NCc2ccccc2)N[C@H]1c1cccc(C(F)(F)F)c1 |  | inconclusive: 31.6 µM [inhibitor, single point]
O=C(Nc1ccc(F)cc1)C1CCN(S(=O)(=O)c2ccc3c(c2)CCCN3C(=O)C2CCC2)CC1 |  | inconclusive: 17.8 µM [inhibitor, partial curve, poor fit]
Cn1c(N)c(C(=O)Nc2ccc(-c3ccccc3)cc2)sc1=S |  | inconclusive: 37.7 µM [inhibitor, single point]
CCOC(=O)c1c(S(=O)(=O)N2CCC(C(=O)Nc3ncccc3C)CC2)c(C)n(C)c1C | inactive: 0.211% | 
N=c1c(C(=O)NCc2ccco2)cc2c(=O)n3ccccc3nc2n1C1CCCC1 |  | inconclusive: 10 µM [inhibitor, partial curve, poor fit]
Cc1ccc(Cn2c(=O)n(CCCCC(=O)NCc3ccccc3Cl)c(=O)c3ccccc32)cc1 |  | inconclusive: 12.6 µM [inhibitor, partial curve, poor fit]
O=C(N/N=C/c1ccccc1O)C1CCCC1 |  | inconclusive: 39.8 µM [inhibitor, single point]
COc1cc(Cl)ccc1OCc1cc(C(=O)N2CCN(C)CC2)no1 | inactive: 0.843% | 
CC(C)CNC(=S)N1CCN(c2nc(-c3ccc(Cl)cc3)cs2)CC1 |  | active: 15.8 µM
CCOC(=O)[C@]12CCC=C1N(Cc1ccc3c(c1)OCO3)C(=O)[C@H](CC(=O)N1CCN(C(=O)c3ccco3)CC1)C2 | inactive: 16.3% | 
CC(=O)Nc1ccc(-c2csc(NC(=O)C3CCN(S(=O)(=O)c4cccs4)CC3)n2)cc1 |  | inconclusive: 28.2 µM [inhibitor, single point]
CN1CCCC1CCNc1ccc2oc3ccccc3c(=O)c2c1 (configuration not stated) |  | inconclusive: 22.4 µM [inhibitor, single point]
Cc1cc(OCCn2cc(/C(N)=N/O)c3ccccc32)ccc1Cl |  | inconclusive: 31.6 µM [inhibitor, partial curve, poor fit]
Cc1cc2nc(-c3ccc(SCc4ccccn4)nc3)[nH]c2cc1C |  | inconclusive: 39.8 µM [inhibitor, single point]
Cc1csc(CNc2ncnc3ccc(-c4cccc(Cl)c4)cc23)c1 |  | inconclusive: 39.8 µM [inhibitor, partial curve, poor fit]
CC(=O)N1CCc2c(sc3c2c(=O)n(-c2cc(Cl)ccc2C)c(=O)n3Cc2ccccc2F)C1 |  | inconclusive: 39.8 µM [inhibitor, single point]
